Sequences with one replicate were seen in a single cluster, so their values are uncertain.
Tested on: ATP
Test: switch fluorescence ratio, 500 uM ATP over buffer (Cy3 cluster intensity, sum of 5 cycles each) (fold (ratio)); higher = stronger signal-on switching upon ATP binding; sequences stand for … in TCGTCGGCAGCGTCAGATGTGTATAAGAGACAGTTTTTTTTTTTTTTTTTTTTTTTTT…TC
Settings: aptamer strand: ATP DNA aptamer (quencher-CACCTGGGGGAGTATTGCGGAGGAAGG + anchor), 100 nM annealed; ATP concentration: 500 uM; one replicate
Outline: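 Five buffer/ATP imaging cycles were run on Cy3-labelled switching-strand clusters on a modified Illumina MiSeq flow-cell, with NaOH stripping and re-annealing between cycles. In each cycle, clusters annealed to 100 nM quencher-labelled ATP aptamer were imaged in selection buffer, then after 15 min with 500 uM ATP at 22 °C. Per cluster, the fluorescence ratio is summed target-cycle over summed buffer-cycle Cy3 intensity, averaged per switch-domain sequence. Only clusters within 100-1000 RFU were kept.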
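Note: ATP exposure 15 min at 22 °C before imaging.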

Sequence	switch fluorescence ratio
ATCTCGTATG	1.06
AGCGACTCAG	1.03
TGGCTCGCGA	1.09
TGCTTAAGGG	0.978
AGTTTTAACT	0.958
AGAGAAGCTT	0.94
CCTGATAACT	0.992
TAACTTGTT	1
TGTACGTAGA	1.05
ATACGAGTTG	0.983
GAAATTCACG	1.02
CCTGATTAGA	0.996
CAAGAGACAG	0.998
TTTGCCCAGG	3.93
GGCATTGTAG	0.997
AGACGGCTGT	1
TGAAACGGGC	1.08
GCCAGTAGTT	0.965
TTAAACGATG	0.919
ATTTACGCAT	1.26
GCTACAATCA	1.06
ATTAATTCTC	1.08
AGTCATTATT	1.05
TACAGGCTGG	1.02
GATTTAGATC	0.988
GGGGGCGCCT	0.99

Sequence	switch fluorescence ratio
ATTGACACGT	1.02
ATCTAAAAAT	0.985
GGGTTGTATA	1.01
ATTATAACA	1.03
CGCCTTGCTT	0.983
GGGGAAGGCT	1.01
TAGTATTTTA	1.04
GCATCTTGCC	0.993
AAGTTTTTAG	0.995
CCGTGTCCCC	1.8
GGATGGGCGC	1
AGAGTCTGAA	0.975
TTCAGAAGCT	1.12
GTACGCTTTT	1.1
TCGACCCTCT	1.02
TGCTTTCCTG	1.01
CGTGACAACG	1.03
TTGTAAAGAG	0.99
AAGGCCTACA	1.01
AGAGAGCTTA	0.987
CACTTCGGGT	0.999
TCTGTTCCTT	1
ACAATTTTTA	1.04
ACCGAAGTTA	1.08
AAAAATAACT	1.1
CGAGCTATTG	0.995

Sequence	switch fluorescence ratio
TTCGCCCTTA	0.953
TTCGTGACGT	1.01
CGAAATGCCA	1.01
ATTTTGGCCA	0.999
CATGCTACTA	1.06
CCCGGTGCTG	1.04
ATTTCGCACT	1.15
TGGTCCGAAA	1.13
GCTCTCGCCC	1.12
AGTCAAAAGG	1.04
TACTACGGCC	1.06
TCGGATCTGT	0.952
AGTTGGTC	0.996
GGTAAAGGG	0.96
ACATGGAAAT	1.02
CGCAGAGGCA	1.01
TACCCTAATT	1.06
ACAAGAAGAT	1.02
CAAAATATTG	0.972
TGGGAGCATT	1.03
CCATATTAAA	0.994
CGTCGAGACC	1
CGCGAAATGC	1.32
CTGTTCCTGG	0.996
AGCCACGTTG	0.975
CAGTCGGCAA	2.31

Sequence	switch fluorescence ratio
TCTTATTTC	0.977
AATAGTTTT	0.968
TTACAGTCAT	1.01
TAAAAGGAGT	1.01
ATGTGCACAT	1.05
ATAGCGTCGG	0.96
GCCTCGTAAA	1.01
ACGGGCTTAT	0.988
CGGTGGATGG	1.01
AATAGGGACT	0.991
CAAGGGGCGA	1.03
AATTGAACCT	2.14
ATGCTAAAGC	0.992
ACATGATTTT	1.01
AGGTATATGA	1
TTCCTATTTC	1.07
TTACGGCATA	2.08
TTTAGACATA	1.02
GAAGAATCCA	0.983
GCAAGGGATA	1.03
GGAATCGTCC	1.12
CAGCAGTCCT	1.13
ACTATATATC	1.04
ACCTACCTTT	1.27
ATTCTTGTGG	1.01
CCGCGGTTGG	1.09

Sequence	switch fluorescence ratio
AGCGACTATA	1.07
GATTACCTGA	1.08
AGATACGGGT	1.03
CCATAAGAGA	1.04
TATTATTTAG	1.01
TATAGGCTGT	1
GCTTATATGC	1.02
GCCTTAAGGT	1.07
ACGAAAAGGT	1.22
CGCGGGACCA	0.999
TCCAAAAGGA	1.03
AAGCGCTTTG	1.01
AGTTCGAAGC	1.31
ACAATTCGG	0.99
CTCTCTCTGG	1.15
ATTGAATAAT	0.977
TGCTCGCCTT	0.991
TATAGATGAA	1
GGTCTGTTGC	0.998
TTTAGGAGAT	1.02
TATCTTTAT	0.995
TAGTTCCTCT	1.01
GAGAGGAATG	1.01
GTGGGAGCCA	0.993
TCCAACCACG	1.06
TAATCCAATC	1

Sequence	switch fluorescence ratio
GAGTGGTCGT	0.954
CTATCAGGGA	0.991
GGGATGCGAG	0.977
TAACCTGACC	2.44
GTACAGAGCG	1.02
TACGAGTAGT	1
TGATAGACTT	1
GTAATCCAAG	1.01
ATGCATGTTA	1.01
AGATTTCACA	0.987
CAGGCGTTGA	1.04
CATAGACAAT	1.07
GCCGAGATCT	0.938
CCCATGCTTC	1.15
TCTACTTAT	1.07
TTTGGGGATA	1.03
TTCAACTATT	0.985
AGCCCCTCGC	1.03
GACGTGCAGC	1.07
CGCGAGAATG	1.01
TATTCGGAGT	1.01
GCCTCCACCC	1.24
GTGTGTCAAT	1.04

From the supplement of paper PMC10126150
